Measurements as given in the supplement of paper PMC10126150.
Sequences with one replicate were seen in a single cluster, so their values are uncertain.

Test system: ATP
Experiment: switch fluorescence ratio, 500 uM ATP over buffer (Cy3 cluster intensity, sum of 5 cycles each) (fold (ratio)); higher = stronger signal-on switching upon ATP binding; sequences stand for … in TCGTCGGCAGCGTCAGATGTGTATAAGAGACAGTTTTTTTTTTTTTTTTTTTTTTTTT…TC
Conditions: aptamer strand: ATP DNA aptamer (quencher-CACCTGGGGGAGTATTGCGGAGGAAGG + anchor), 100 nM annealed; ATP concentration: 500 uM; one replicate
Method in brief: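 Per cluster, summed Cy3 intensity from the target cycles was divided by that from the buffer cycles to give the fluorescence ratio, then averaged per switch-domain sequence. Clusters outside 100-1000 RFU were excluded. The Cy3-labelled switching-strand clusters, on a modified Illumina MiSeq flow-cell, were annealed to 100 nM quencher-labelled ATP aptamer and imaged in selection buffer, then after 15 min with 500 uM ATP at 22 °C, for five cycles with NaOH stripping and re-annealing between them.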
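Also: ATP exposure 15 min at 22 °C before imaging.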

Row | Sequence | switch fluorescence ratio
1 | AGCGACAAAT | 0.97
2 | AGAGAGGTTG | 1.03
3 | ACAGACTTAA | 1.04
4 | CTGAGATAG | 1.03
5 | TCATGTACAC | 1.09
6 | TTGTATCTGT | 0.947
7 | CAAGTTATAT | 0.982
8 | CGACCGCTTT | 3.3
9 | GGGTAGTAT | 0.971
10 | GCTATTTTCC | 1.07
11 | TAACTCGGAG | 0.947
12 | GAGGATTGAT | 0.979
13 | ACCTTGACGC | 2.06
14 | ACTCAGGGCC | 0.998
15 | GCATAGTGGG | 0.968
16 | CTGTTTGGGC | 0.969
17 | CGAGGTAGGA | 1.01
18 | CCTTGTGCTG | 1.05
19 | GACGTCTTAT | 0.973
20 | CGCTACTTGT | 1.08
21 | CGTTGTAAGT | 0.981
22 | ACGGGACTGC | 1.38
23 | ACTCAATGGT | 1.03

Row | Sequence | switch fluorescence ratio
24 | TGTAGGTAGT | 1.01
25 | TTTCCGGTAT | 1.06
26 | GGCCATCACA | 0.971
27 | GGAAACCCTC | 1.06
28 | ACGACTGATG | 1.06
29 | AGTAAATCTG | 0.985
30 | CGGCATTT | 1.08
31 | AGCTACTTTA | 1.09
32 | AACCAGAACT | 1.02
33 | AGTCTGTGGT | 0.937
34 | AAACACACGT | 1.27
35 | CGTGCTGCGT | 1.04
36 | ATGGACGGA | 1.14
37 | GTATCCTAGT | 0.976
38 | TAGTTGCCTT | 0.964
39 | ATATGGGC | 1.01
40 | TGTTGAGGGT | 0.982
41 | ACACTTTTGC | 1.1
42 | GTTTCAGGTG | 3.33
43 | TCGCGCAACG | 0.995
44 | CGGCCAGGCG | 1.09
45 | TGCGCAAGCG | 1.04
46 | CGAGTCGGAA | 1.02

Row | Sequence | switch fluorescence ratio
47 | TAACAACTTC | 1.02
48 | ACGACTTCGC | 1.3
49 | AAATGGTAGA | 1.01
50 | GTGGCCTGTT | 0.975
51 | CCCCCGTGGC | 3.3
52 | CAGGGCAC | 0.984
53 | TGGAAAAGAC | 1.01
54 | CGCCCTGTGA | 1.11
55 | TCGAGGGCGT | 0.973
56 | TTTCTGACAA | 1.73
57 | ATCCCCTTGG | 1.85
58 | CCAAAAGTTT | 0.99
59 | CTGGCTACCC | 1.71
60 | CAAACCGTAA | 1.43
61 | GACGGACTGC | 1.16
62 | ACCGACTATG | 1.05
63 | CAAGTGCTAC | 1.15
64 | TAATTACCTT | 1.08
65 | CCTTAAACCG | 1.3
66 | GCACTATAGT | 1.06
67 | TATTTTAACG | 1.02
68 | ACTGTAGATC | 1.06
69 | CGGTCATGAG | 1.02

Row | Sequence | switch fluorescence ratio
70 | TCGAGATAGT | 0.973
71 | GGGTTTGA | 1.03
72 | CGCTAGAAAG | 1.01
73 | AGGAGCTTTT | 0.999
74 | TTACCGGTTA | 0.986
75 | CTTGCTCCAA | 2.06
76 | ACCGGGGCAG | 1.05
77 | TCACATGAAA | 1.01
78 | ACGCTTGATT | 1.22
79 | GACAGTTTGG | 1.48
80 | GACTATTCGG | 1.01
81 | GAAAGAATCT | 0.976
82 | GGGTGGATTA | 1.03
83 | GCGGGGTGCG | 1.04
84 | TCGCATCAGG | 1.34
85 | TTGCAGGTG | 3.04
86 | CAGCGTAGGC | 0.994
87 | CTCGACACTT | 1.03
88 | ATGTTTAGG | 1.13
89 | TCTTAAACGC | 1.45
90 | GCTAGAGGC | 1.03
91 | CTACCTGCGC | 2.1
92 | TTACATATCG | 1.05

Row | Sequence | switch fluorescence ratio
93 | AAAAAACATT | 1.03
94 | ATTGATTGGC | 1.03
95 | ATTGTCATTG | 1.03
96 | AATATATAAA | 1
97 | GAGCTTATCA | 1.03
98 | AATCCAATGG | 1.01
99 | CATCTCAGTC | 1.02
100 | GGAATTAGGG | 0.977
101 | ATGTTTGACG | 1.15
102 | TCCATTAGCT | 1.06
103 | ACTGGTAGCC | 1.02
104 | TACTACGGTA | 1.14
105 | AGTCGCATCC | 1.15
106 | GCGAACTAAG | 1.01
107 | AAAGAGGGTC | 1.02
108 | CCGACATAGC | 2.42
109 | TAGTTATTGG | 1.02
110 | AAGTTCTTGA | 1
111 | GTGTCGCAGA | 0.945
112 | GCTTACATTC | 1.01
113 | AACCGTCGC | 1.14
114 | AATTAGAAAT | 1.02
115 | CGTCCTTTT | 1

Row | Sequence | switch fluorescence ratio
116 | GATGCAA | 1.13
117 | GGTTATATAC | 1.12
118 | CTAGGCGCGA | 1.05
119 | CGCGTATCGG | 1.01
120 | GTAAGCAGGT | 0.953
121 | GTAGTGGCTC | 1.41
122 | GATGCGAGGG | 0.971
123 | AGAGAAACCG | 1.11
124 | CAGATGGCGC | 0.991
125 | GCCAGACACT | 1.02
126 | TCAACAGCTT | 1.03
127 | ATCGTGAGAG | 1.02
128 | CCGGCCTATT | 1.05
129 | GGGAGACGCT | 0.991
130 | GTATTATGGA | 0.974
131 | AGGATCCCGT | 0.98
132 | AGCACTCTGA | 1.05
133 | TATCACGCAG | 1.05
134 | TTGCGGTGCC | 1.01
135 | ATCCTGCGCA | 6.99
136 | TTCCTAGGGC | 0.995
137 | AGCAGGCCCG | 0.925
138 | GGTCAGGCTA | 0.961

Row | Sequence | switch fluorescence ratio
139 | ATGCTACACT | 1.04
140 | AGAATTTAT | 0.967
141 | CGCAGGTTGC | 1.3
142 | TAGCCGGTTT | 0.982
143 | ATTCGTGCG | 0.992
144 | ATGTGTAAGG | 1.03
145 | ATACAGTTTT | 1
146 | TTAAAGGTTG | 0.982
147 | CAATTTATCG | 0.992
148 | CCTTACCAGC | 2.04
149 | CGACTGTGTA | 1.03
150 | TGTTAGCCTG | 0.995
151 | TAGATCATCA | 1
152 | ATCGGGCTAC | 1.16
153 | GGAAAATTCA | 0.967
154 | GTAATAGCCA | 0.968
155 | AAGATGGCAA | 0.996
156 | CGACGGGGCG | 1.03
157 | ATAACGGGGT | 1.03
